According to the supplement of paper PMC12217912:
This is one part of the list. Sequences were assembled here from the parent chain. Inactive controls read about 0.05.

B1: TEV protease; numbered along this chain (parent)
chain: MGESLFKGPRDYNPISSSICHLTNESDGHTTSLYGIGFGPFIITNKHLFRRNNGTLVVQSLHGVFKVKDTTTLQQHLVDGRDMIIIRMPKDFPPFPQKLKFREPQREERICLVTTNFQTKSMSSMVSDTSCTFPSGDGIFWKHWIQTKDGQCGSPLVSTRDGFIVGIHSASNFTNTNNYFTSVPKNFMELLTNQEAQQWVSGWRLNADSVLWGGHKVFMVKPEEPFQPVKEATQL

Variants of: B1
Test: raw area under fraction-flipped curve 0-4 h after induction (AUC4h, not background-subtracted), DNA-recorder readout of cleavage of the substrate (dimensionless); higher = more cleavage of the substrate by the protease variant
Conditions: temperature: 34 °C; time window: 0-4 h after rhamnose induction
Procedure: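 In vivo DNA recorder in E. coli TOP10(DE3) ΔrhaA at 34 °C. Each TEVp single-site mutant (parent TEVp 0) is paired with a single-site variant of the 7-mer TEVs (canonical ENLYFQ|S). The substrate sits between flexible linkers in a Bxb1-sfGFP-TEVs-SsrA fusion, so cleavage stabilises Bxb1 and speeds flipping of a recombination array, read by NGS. The value is the raw area under the fraction-flipped curve over 0-4 h after rhamnose induction (AUC4h), with ≥20 reads per time point. It is not background-subtracted; inactive controls average about 0.047.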
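Note: Bxb1 expression induced with 0.2% (w/v) L-rhamnose at OD600 near 0.5, cultures sampled hourly, flipped fraction per protease–substrate barcode pair counted by paired-end Illumina sequencing.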

| Variant | area with substrate ENLYDQS | area with substrate ENLYEQS | area with substrate ENLYHQS | area with substrate ENLYIQS | area with substrate ENLYKQS | area with substrate ENLYMQS | area with substrate ENLYNQS | area with substrate ENLYPQS | area with substrate ENLYRQS | area with substrate ENLYSQS | area with substrate ENLYTQS | area with substrate ENLYVQS | area with substrate ENLYWQS | area with substrate ENLYYQS | area with substrate ENLYGQS | area with substrate ENLYLQS | area with substrate ENLYQQS |
| --- | --- | --- | --- | --- | --- | --- | --- | --- | --- | --- | --- | --- | --- | --- | --- | --- | --- |
| MGESLFKGPRDYNPISSSICHLTNESDGHTTSLYGIGFIPFIITNKHLFRRNNGTLVVQSLHGVFKVKDTTTLQQHLVDGRDMIIIRMPKDFPPFPQKLKFREPQREERICLVTTNFQTKSMSSMVSDTSCTFPSGDGIFWKHWIQTKDGQCGSPLVSTRDGFIVGIHSASNFTNTNNYFTSVPKNFMELLTNQEAQQWVSGWRLNADSVLWGGHKVFMVKPEEPFQPVKEATQL [G39I] | 0.0413 | 0.0409 | 0.0402 | 0.0501 | 0.0276 | 0.0418 | 0.0367 | 0.0449 | 0.0503 | 0.0532 | 0.0645 | 0.0383 | 0.0296 | 0.0393 | – | – | – |
| MGESLFKGPRDYNPISSSICHLTNESDGHTTSLYGIGFGPFLITNKHLFRRNNGTLVVQSLHGVFKVKDTTTLQQHLVDGRDMIIIRMPKDFPPFPQKLKFREPQREERICLVTTNFQTKSMSSMVSDTSCTFPSGDGIFWKHWIQTKDGQCGSPLVSTRDGFIVGIHSASNFTNTNNYFTSVPKNFMELLTNQEAQQWVSGWRLNADSVLWGGHKVFMVKPEEPFQPVKEATQL [I42L] | 0.0535 | 0.0606 | 0.118 | 0.105 | 0.0693 | 0.08 | 0.0675 | 0.0844 | 0.0329 | – | – | 0.113 | 0.0788 | 0.0615 | 0.0655 | – | – |
| MGESLFKGPRDYNPISSSICHLTNESDGHTTSLYGIGFGPFINTNKHLFRRNNGTLVVQSLHGVFKVKDTTTLQQHLVDGRDMIIIRMPKDFPPFPQKLKFREPQREERICLVTTNFQTKSMSSMVSDTSCTFPSGDGIFWKHWIQTKDGQCGSPLVSTRDGFIVGIHSASNFTNTNNYFTSVPKNFMELLTNQEAQQWVSGWRLNADSVLWGGHKVFMVKPEEPFQPVKEATQL [I43N] | 0.0567 | 0.048 | 0.0323 | – | 0.0428 | 0.0447 | 0.0465 | 0.0424 | – | 0.0468 | 0.0514 | 0.0356 | 0.0457 | – | 0.0406 | 0.0404 | – |
| MGESLFKGPRDYNPISSSICHLTNESDGHTTSLYGIGFGPFIQTNKHLFRRNNGTLVVQSLHGVFKVKDTTTLQQHLVDGRDMIIIRMPKDFPPFPQKLKFREPQREERICLVTTNFQTKSMSSMVSDTSCTFPSGDGIFWKHWIQTKDGQCGSPLVSTRDGFIVGIHSASNFTNTNNYFTSVPKNFMELLTNQEAQQWVSGWRLNADSVLWGGHKVFMVKPEEPFQPVKEATQL [I43Q] | 0.0551 | 0.0408 | 0.0448 | 0.0484 | 0.0429 | 0.0438 | 0.0559 | 0.0558 | 0.0317 | – | 0.0431 | 0.0495 | 0.0472 | 0.0425 | 0.0471 | – | 0.046 |
| MGESLFKGPRDYNPISSSICHLTNESDGHTTSLYGIGFGPFISTNKHLFRRNNGTLVVQSLHGVFKVKDTTTLQQHLVDGRDMIIIRMPKDFPPFPQKLKFREPQREERICLVTTNFQTKSMSSMVSDTSCTFPSGDGIFWKHWIQTKDGQCGSPLVSTRDGFIVGIHSASNFTNTNNYFTSVPKNFMELLTNQEAQQWVSGWRLNADSVLWGGHKVFMVKPEEPFQPVKEATQL [I43S] | 0.0627 | 0.0562 | 0.0513 | – | 0.0432 | 0.0527 | 0.0517 | 0.0669 | 0.045 | 0.0481 | 0.0373 | – | 0.047 | 0.0542 | – | – | 0.061 |
| MGESLFKGPRDYNPISSSICHLTNESDGHTTSLYGIGFGPFIITNKELFRRNNGTLVVQSLHGVFKVKDTTTLQQHLVDGRDMIIIRMPKDFPPFPQKLKFREPQREERICLVTTNFQTKSMSSMVSDTSCTFPSGDGIFWKHWIQTKDGQCGSPLVSTRDGFIVGIHSASNFTNTNNYFTSVPKNFMELLTNQEAQQWVSGWRLNADSVLWGGHKVFMVKPEEPFQPVKEATQL [H47E] | 0.0592 | 0.0578 | 0.058 | 0.0728 | 0.0644 | 0.0588 | 0.0619 | 0.0554 | 0.0618 | 0.0631 | 0.0752 | – | 0.0581 | 0.0587 | 0.0716 | – | 0.0693 |
| MGESLFKGPRDYNPISSSICHLTNESDGHTTSLYGIGFGPFIITNKHLFRRVNGTLVVQSLHGVFKVKDTTTLQQHLVDGRDMIIIRMPKDFPPFPQKLKFREPQREERICLVTTNFQTKSMSSMVSDTSCTFPSGDGIFWKHWIQTKDGQCGSPLVSTRDGFIVGIHSASNFTNTNNYFTSVPKNFMELLTNQEAQQWVSGWRLNADSVLWGGHKVFMVKPEEPFQPVKEATQL [N52V] | 0.0582 | 0.038 | 0.0626 | 0.0773 | – | 0.0536 | 0.0591 | 0.0595 | – | 0.0453 | 0.0624 | 0.0888 | 0.0707 | – | 0.0584 | 0.0653 | 0.0667 |
| MGESLFKGPRDYNPISSSICHLTNESDGHTTSLYGIGFGPFIITNKHLFRRNNGSLVVQSLHGVFKVKDTTTLQQHLVDGRDMIIIRMPKDFPPFPQKLKFREPQREERICLVTTNFQTKSMSSMVSDTSCTFPSGDGIFWKHWIQTKDGQCGSPLVSTRDGFIVGIHSASNFTNTNNYFTSVPKNFMELLTNQEAQQWVSGWRLNADSVLWGGHKVFMVKPEEPFQPVKEATQL [T55S] | 0.0674 | 0.0658 | 0.0571 | 0.122 | – | 0.0944 | 0.0639 | 0.0658 | 0.0469 | – | – | 0.141 | 0.0845 | 0.059 | 0.0649 | – | – |
